Consider 4 proteins from PMC2792886 (Journal of molecular biology, 2009).

The labels stand for the following.
B1: BirA R212A (enzyme)
chain: not shown
B2: BirA R116A (enzyme)
chain: not shown
B3: BirA K122A (enzyme)
chain: not shown
B4: BirA R213A (enzyme)
chain: not shown

Broadly, the Kd is the free concentration of one partner at which half of the binding sites on the other are occupied at equilibrium, for simple one-to-one binding. A higher Kd goes with a looser complex.

This series deals with the molecule itself. Description: AUC.
B1 displayed a Kd of 15 µM.

B2: the Kd amounted to 5 µM. This Kd is about 3-fold lower than that of the protein before.

Consider B3, for which the affinity, expressed as Kd, was 21 µM.

Turning to B4, binding was characterised by a dissociation constant (Kd) of 7 µM.
